Experimental data as given in PubChem BioAssay AID1508624 (National Center for Advancing Translational Sciences (NCATS), 2021).
Screen size: about 48,000 compounds; about 120 (0.25%) were called active. Not shown: some 4% with an inconclusive outcome. Calls follow the shape of the dose curve; as a rule, active = well fitted activation curve with a large enough effect; inconclusive = small, poorly fitted or top-dose-only effect, or another doubt; inactive = no such curve, though single readings can be large or run the other way. The list shows a part of the results.

Assay: Primary qHTS for Identification of Small Molecule Activators of Huntingtin-Antisense Promoter Activity; also: nearly all actives have a fitted effect of over 55% in size
Details: HEK293 HTT-AS promoter firefly luciferase reporter, 24 h; series mostly up to 57.5 µM; activity change, positive = activation: at the top concentration
How it was run: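 Luminescence was read after Dual-Glo reagent and a 10 min room-temperature incubation. Values were normalized to vehicle (0% activity) and zero RLU (-100% activity). Reporter HEK293 cells had been exposed to compounds (up to 57.5 uM final) for 24 h.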

Activity change, positive = activation, inactive:
Cc1ccc(-n2nc(C(=O)N3CCN(c4cc(Cl)ccc4C)CC3)c(=O)n(C)c2=O)cc1 -21.4%
CCCCNC(=O)C1CCCN(Cc2nc(-c3ccc(Cl)cc3)oc2C)C1 (stereo not given) -6.19%
CCc1ccc(C(=O)c2cn(CC(=O)Nc3ccc(F)c(F)c3)c3cc(OC)c(OC)cc3c2=O)cc1 -46.6%
Cc1ccc(Oc2c(C(F)(F)F)oc3c(CN4CCCCC4)c(O)ccc3c2=O)cc1 0%
O=C(Nc1ccc(Cl)cc1)C1CCCN(S(=O)(=O)c2ccc3[nH]c(=O)ccc3c2)C1 (stereo not given) -25.6%
Cc1cc(F)ccc1NC(=O)CCS(=O)(=O)c1ccc2c(c1)NC(=O)CO2 -4.87%
CCOC(=O)c1ccccc1NC(=O)CSc1cn(CC(=O)N2CCCCC2)c2ccccc12 -5.15%
COc1cc(Cl)cn2c(-c3cccc(NC4CNC4)n3)cnc12 -27.7%
Cc1nc2c(-c3ccccc3)c(C)nn2c(C)c1CCC(=O)NC(C)c1ccccc1 (stereo not given) -13.5%
COc1cccc(CNC(=O)C2CCCN(S(=O)(=O)c3ccc4c(ccn4C)c3)C2)c1 (stereo not given) -10.6%
CCC(C(=O)Nc1ccc(C(=O)OC)cc1)n1c(=O)c(-c2ccccc2NC(C)=O)nc2ccccc21 (stereo not given) -42.2%
Nc1ccn([C@@H]2O[C@H](CO)[C@@H](O)C2O)c(=O)n1 (stereo not given in full) 3.78%
COc1cc(CN(C(=O)Nc2ccccc2)c2ccccn2)cc(OC)c1OC 6.84%
CCc1ccccc1NS(=O)(=O)c1ccc2[nH]cc(C(=O)N3CCCCC3)c(=O)c2c1 -5.46%
CCOc1ccc(NC(=O)C(=O)NCCc2csc(-c3ccc(F)cc3)n2)cc1 -2.26%
CCc1cccc(NC(=O)Nc2ccc3c(c2)N(C)C(=O)c2ccccc2S3)c1 -38.3%
COc1ccc(NS(=O)(=O)c2cc3[nH]c(=O)c(=O)[nH]c3cc2C)cc1Cl -11%
CCC(=O)N1CCc2cc(Br)cc(S(=O)(=O)CCC(=O)NCCc3ccc(OC)c(OC)c3)c21 2.55%
CCOc1ccc(/C=C/c2nc(C#N)c(N3CCN(c4ccc(OC)cc4)CC3)o2)cc1 -7.32%
Cn1cc(S(=O)(=O)N2CCCCCC2)cc1C(=O)N1CCN(c2ccc(F)cc2)CC1 -20.1%
Cc1ccc(NC(=O)Cc2c(C(=O)O)c(C)cn2C)cc1Cl -3.88%
CC(C)OCCCn1c(SCc2ccccc2C#N)nc2c(sc3ccccc32)c1=O 1.36%
CCN(CC)CC(C)CNC(=O)CN1C(=O)CSc2ccc(S(=O)(=O)N3CCOCC3)cc21 (stereo not given) -4.64%
CN(C(=O)C1CCCN(c2ncnc3c2nc2n3CCCCC2)C1)c1ccccc1F (stereo not given) -31.9%
CCN(CC)CCOc1ccc2c(c1)C(=O)c1cc(OCCN(CC)CC)ccc1-2 -14.4%
COc1cc(OC)c(NC(=O)CN2C(=O)CCn3nc(-c4cccn4C)cc32)cc1Cl -0.494%
COc1cc(NC(=O)CCn2c(-c3ccccc3)cc(C(C)=O)c2C)cc(OC)c1 -24.8%
COc1ccc(NC(=O)C(NS(=O)(=O)c2ccc3c(c2)CCCC(=O)N3)C(C)C)c(OC)c1 (stereo not given) -10.4%
Cc1cc(C)c(NC(=O)CSc2ccnc(=O)[nH]2)c(C)c1 -8.23%
Cc1c(Cl)cccc1NC(=O)CSc1ncnc2c1sc1ccccc12 -8.71%
Cc1cccc(CNC(=O)c2oc3c(c2C)-c2nn(Cc4ccccc4Cl)cc2CC3)c1 -28%
Cc1cc(OCC(=O)Nc2ccc(-c3nc4cc(Cl)ccc4o3)cc2)cc(C)c1Cl 7.43%
NS(=O)(=O)c1ccc(CCNC(=O)C2COc3ccccc3C2)cc1 (stereo not given) 8.79%
CCc1ccc(C2CC(=O)c3c([nH]c(C(=O)OCC4CCCCC4)c3C)C2)cc1 (stereo not given) -13.1%
Cc1ccc(Cn2c(=O)c3cccnc3n(CC(=O)Nc3cccc(C(F)(F)F)c3)c2=O)cc1 -38.9%
O=C(COc1ccccc1)NCc1ccc2c(c1)CCN2C(=O)c1ccc(F)cc1 -7.16%
Cc1c(Cl)cccc1Nc1nc2ccc(C(=O)c3ccccc3)cc2n2cnnc12 -24.5%
Cc1ccc(CNC(=O)CN2C(=O)C3(SCC(=O)N3c3ccc(F)cc3)c3ccccc32)cc1 (stereo not given) -11.5%
Cc1ccc(NC(=O)Cn2c(-c3cncs3)nc3ccccc32)c(Br)c1 -19.2%
CC(=O)N1CCc2c(sc3c2c(=O)n(Cc2ccccc2)c(=O)n3Cc2cc(C)ccc2C)C1 -12.9%
COc1ccc2c(c1)Cc1sc(NC(=O)c3cccc(Br)c3)nc1-2 -20%
CC1CN(C(=O)N2CCC(C(=O)NCCCc3ccccc3)CC2)c2ccccc2O1 (stereo not given) -17.5%
CCOc1ccc(Nc2oc(/C=C/c3cccc(OC)c3)nc2C#N)cc1 1.47%
CCCCCn1c(CCNC(=O)c2cccc(C)c2)nc2ccccc21 -24%
NS(=O)(=O)c1ccc(NC(=O)CSc2ccc3ccccc3n2)cc1 -7.26%
Cc1ccc(S(=O)(=O)c2cn(CC(=O)Nc3cccc(C)c3)c3cc4c(cc3c2=O)OCO4)cc1 -1.56%
CC1CCC(C(=O)NC(C(=O)OCC(=O)c2ccc(Br)cc2)C(C)C)CC1 (stereo not given) -20.6%
Cc1ccc(CNS(=O)(=O)c2cc3c(cc2Cl)NC(=O)CO3)o1 -3.67%
Cc1ccc(/C=C/c2onc(C)c2S(=O)(=O)N2CCC(C(=O)Nc3ccc(Br)c(C)c3)CC2)cc1 -18%
CCC(CC)C(=O)Nc1cc(-c2ccccc2F)nn1-c1ccccc1 -8.94%
CNS(=O)(=O)c1cn(CC(=O)Nc2ccc(OC)cc2OC)cc1S(=O)(=O)NC -2.35%
Cc1ccccc1/C=C(\C#N)c1nc(-c2ccc(Cl)cc2)cs1 27.7%
Cc1csc2nc(-c3ccc(NS(=O)(=O)c4cc(F)ccc4F)cc3)cn12 -33.5%
Cc1ccc(CNC(=O)c2nnc(Cc3ccc(Cl)cc3)o2)cc1 -7.02%
CN(C(=O)c1ccc2c(Cl)c3c(nc2c1)CCC3)c1ccccc1F 27.8%
COc1ccccc1C(=O)Nc1ccc(C(=O)OCc2cc(=O)n3nc(C)sc3n2)cc1 -50.6%
CCN(CC)C(=O)Cn1c(=O)n(-c2ccccc2)c(=O)c2c3c(sc21)CCC3 -2.46%
COc1ccc(-c2c(C)c3ccc(O)c(CN4CCCC4)c3oc2=O)cc1OC -5.96%
CN1CCC(=C2c3ccccc3Sc3ccccc32)CC1 -18.6%
COc1ccc(OCc2nc(-c3ccc(-n4cccc4)cc3)no2)cc1 -6.75%
Cc1cc(C)n(-c2nc(C)c(C)c(=O)n2CC(=O)Nc2ccc(OC(F)(F)F)cc2)n1 -28.5%
Cc1cccc(NC(=O)c2cc(S(=O)(=O)N3CCCCCC3)cn2C)c1C -19.8%
Cc1ccc(NC(=O)Cn2cc(C(=O)C3CC3)c3ccccc32)cc1C -5.22%
CCc1ccc(CNC(=O)C2CCCN(S(=O)(=O)c3ccc4c(ccn4C)c3)C2)cc1 (stereo not given) -29.2%
COc1ccc(CNC(=O)CCc2nc(-c3ccc(OC)cc3)no2)cc1 17.6%
Cc1cc(C)c2c(n1)sc1c(=O)n(-c3ccccc3C(F)(F)F)nnc12 -8.27%
CCSc1nc2c([nH]c3ccccc32)c(=O)n1-c1ccc(F)cc1 -28.7%
CCCCOc1ccc(CNC(=O)c2ccc3c(c2)N(C)C(=O)C2CCCCN32)cc1 (stereo not given) -20.4%
Cc1ccc(OCCSc2nc3ccc(NC(=O)c4ccc(F)cc4)cc3s2)cc1 -3.44%
CCOC(=O)C(CC)Sc1c(CC)cnc2c1c(=O)n(C)c(=O)n2C (stereo not given) -12.5%
Cc1cccc(C(C)C)c1NC(=O)C(NS(=O)(=O)c1cccc2nsnc12)c1ccccc1 (stereo not given) -8.73%
Nc1c2ccccc2nc2ccccc12 -35.8%
O=C(NCc1ccccc1)c1cccn1-c1nnc(N2CCCC2)s1 2.01%
CC(=O)N1c2ccccc2C(C)(c2ccc(C)cc2)CC1(C)C (stereo not given) -12.7%
O=C(O)C=Cc1ccc(O)c(O)c1 -9.07%
CN1C(=O)c2ccccc2Sc2ccc(NC(=O)N3CCN(c4ccccc4)CC3)cc21 -61.8%
COc1ccc(-n2nnnc2C2CCN(S(=O)(=O)c3ccc(C)cc3)CC2)cc1 -36.8%
COc1cc2c(cc1OC)C(COc1ccc3c(C)cc(=O)oc3c1)N(C(=O)c1ccccc1C)CC2 (stereo not given) -1.68%
COCCn1c(=O)[nH]c2cc(C(=O)N3CCN(c4ccccc4)CC3)ccc2c1=O -14.8%
CC(=O)N1CCc2cc(S(=O)(=O)NC(Cc3ccccc3)C(=O)Nc3cc(C)ccc3C)ccc21 (stereo not given) -0.76%
CCOc1ccc(CNC(=O)c2nn(-c3ccc(OC)cc3)c(=O)c3c2c2ccccc2n3C)cc1 3.22%
NC(=O)CSc1ncc2c(n1)-c1ccccc1N(Cc1ccc(F)cc1)S2(=O)=O 20.4%
CCOc1ccc(C(=O)Nc2ccc3nc(SCC(=O)N4CCc5ccccc54)sc3c2)cc1 -17.6%
CC1=C(c2ccc(C)cc2)S(=O)(=O)N(Cc2ccc(C(=O)Nc3ccc(C)c(F)c3)cc2)C1=O -31.7%
Cc1ccc(-c2ccc(CCC(=O)O)n2-c2ccc(C(N)=O)cc2)cc1 -4.14%
Cc1ccc(CNC(=O)c2ccc(Cn3c(=O)c4ccccc4n(CC(=O)Nc4c(C)cc(C)cc4C)c3=O)cc2)cc1 -21.6%
O=C(NCC(c1cccs1)S(=O)(=O)c1cccs1)c1cccc(F)c1 (stereo not given) -23.9%
c1cnc(N2CCN(c3ncc4c(n3)CCNC4)CC2)nc1 5.84%
COc1ccc(OC)c(-n2nnc(-c3nc(-c4cc(OC)c(OC)c(OC)c4)no3)c2C)c1 -9.93%
COc1ccc(-c2nc3ccccc3n3c(-c4ccccc4)c4c(=O)n(C)c(=O)n(C)c4c23)cc1OC -2.39% [at 11.5 µM, percent change from vehicle, -100% = no light]
O=c1oc2c3c(ccc2c2ccccc12)OCN(Cc1ccc(Cl)cc1)C3 -12.8%
Cc1ccc(=O)n(-c2ccccc2)c1 -3.65%
Cc1cc2c(cc1NS(=O)(=O)c1cccc(C#N)c1)n(C)c(=O)c(=O)n2C -10.3%
CCc1cccc(C)c1NC(=O)Cn1nnc(-c2nc(-c3ccccc3F)no2)c1N -4.73%
Cn1cc(S(=O)(=O)N2CCCCCC2)cc1C(=O)Nc1ccc(Cl)c(C(F)(F)F)c1 -11.2%
